Results: the supplement of paper PMC4967469
The IC50 comes from the fitted curve, where viability falls to half of the control; where the fit passes the top or lowest dose, that dose stands as a limit. AUC is the area under the same curve over the 256-fold range up to the top dose, as a fraction; the more sensitive the line, the further below 1.

Compound: Cn1c(=O)n(-c2ccc(C(C)(C)C#N)cc2)c2c3cc(-c4cnc5ccccc5c4)ccc3ncc21 [NVP-BEZ235]
Test: Viability of human cancer cell lines after 72 h of drug (GDSC screen)
Description: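 Human cancer cell lines in 384-well plates, medium with 10% serum, drug for 72 h over a 256-fold dose range (nine 2-fold or five 4-fold steps up to the top dose). Adherent lines were fixed and stained with the nucleic acid dye Syto60, suspension lines read with resazurin; signal relative to control wells, capped at 0 and 100%. One two-parameter sigmoid per drug and line, fitted in a mixed model over all curves with the slope shared within a line.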

Cell Line | AUC | IC50 [nM]
A2780 (ovary, semi-adherent, top dose 0.25 µM) | 0.783 | 109
AGS (stomach, adherent, top dose 0.25 µM) | 0.548 | 20.8
ALL-PO (lymphoblastic leukaemia, suspension, top dose 0.25 µM) | 0.742 | 80.5
ALL-SIL (T-cell leukaemia, suspension, top dose 0.25 µM) | 0.81 | 110
AM-38 (glioma, semi-adherent, top dose 0.25 µM) | 0.703 | 59.2
AMO-1 (haematopoietic neoplasm, suspension, top dose 0.25 µM) | 0.669 | 42.7
ARH-77 (myeloma, suspension, top dose 0.25 µM) | 0.949 | > 250
ASH-3 (thyroid, adherent, top dose 0.25 µM) | 0.771 | 95.8
ATN-1 (T-cell lymphoblastic leukaemia, suspension, top dose 0.25 µM) | 0.561 | 22.6
AU565 (breast, adherent, top dose 0.25 µM) | 0.7 | 61.4
AsPC-1 (pancreas, adherent, top dose 0.25 µM) | 0.562 | 26
BALL-1 (B-cell leukaemia, suspension, top dose 0.25 µM) | 0.787 | 79
BB30-HNC (head and neck, adherent, top dose 0.25 µM) | 0.597 | 28.6
BB49-HNC (head and neck, adherent, top dose 0.25 µM) | 0.754 | 117
BC-1 (B-cell lymphoma, suspension, top dose 0.25 µM) | 0.849 | 147
BCPAP (thyroid, adherent, top dose 0.25 µM) | 0.543 | 20.2
BE2-M17 (neuroblastoma, adherent, top dose 0.25 µM) | 0.773 | 100
BE-13 (lymphoblastic leukaemia, suspension, top dose 0.25 µM) | 0.482 | 14
BFTC-905 (bladder, adherent, top dose 0.25 µM) | 0.695 | 50.3
BHT-101 (thyroid, adherent, top dose 0.25 µM) | 0.611 | 31.9
BHY (head and neck, adherent, top dose 2 µM) | 0.364 | 52.6
BICR10 (head and neck, adherent, top dose 0.25 µM) | 0.629 | 37.5
BICR22 (head and neck, adherent, top dose 0.25 µM) | 0.627 | 36.9
BICR78 (head and neck, adherent, top dose 0.25 µM) | 0.773 | 113
BL-41 (Burkitt lymphoma, suspension, top dose 0.25 µM) | 0.586 | 25.4
BPH-1 (prostate, adherent, top dose 2 µM) | 0.221 | 17.3
BT-20 (breast, adherent, top dose 0.25 µM) | 0.76 | 108

Cell Line | AUC | IC50 [nM]
BT-474 (breast, adherent, top dose 0.25 µM) | 0.845 | 213
BT-483 (breast, adherent, top dose 0.25 µM) | 0.773 | 209
BT-549 (breast, adherent, top dose 0.25 µM) | 0.78 | 147
BV-173 (chronic myeloid leukaemia, suspension, top dose 0.25 µM) | 0.57 | 23.7
Becker (glioma, adherent, top dose 0.25 µM) | 0.629 | 37.2
BxPC-3 (pancreas, adherent, top dose 0.25 µM) | 0.722 | 72.5
C2BBe1 (large intestine, adherent, top dose 0.25 µM) | 0.689 | 57.3
C3A (liver, adherent, top dose 0.25 µM) | 0.98 | > 250
C32 (melanoma, adherent, top dose 0.25 µM) | 0.86 | 233
C-4-I (cervix, adherent, top dose 0.25 µM) | 0.834 | 183
C-33-A (cervix, adherent, top dose 0.25 µM) | 0.776 | 100
CA46 (Burkitt lymphoma, suspension, top dose 0.25 µM) | 0.803 | 135
CADO-ES1 (Ewing sarcoma, suspension, top dose 0.25 µM) | 0.814 | 139
CAL-12T (non-small cell lung carcinoma, adherent, top dose 0.25 µM) | 0.624 | 35.8
CAL-27 (head and neck, adherent, top dose 0.25 µM) | 0.72 | 66.5
CAL-29 (bladder, adherent, top dose 0.25 µM) | 0.508 | 16.5
CAL-33 (head and neck, adherent, top dose 0.25 µM) | 0.508 | 16.5
CAL-39 (cervix, adherent, top dose 0.25 µM) | 0.647 | 40.5
CAL-51 (breast, adherent, top dose 0.25 µM) | 0.577 | 24.6
CAL-54 (kidney, adherent, top dose 2 µM) | 0.518 | 141
CAL-62 (thyroid, adherent, top dose 0.25 µM) | 0.637 | 36.6
CAL-72 (osteosarcoma, adherent, top dose 0.25 µM) | 0.602 | 31.4
CAL-78 (chondrosarcoma, adherent, top dose 0.25 µM) | 0.911 | > 250
CAL-85-1 (breast, adherent, top dose 0.25 µM) | 0.732 | 87.9
CAL-120 (breast, adherent, top dose 0.25 µM) | 0.625 | 38.2
CAPAN-1 (pancreas, adherent, top dose 0.25 µM) | 0.946 | > 250
CAS-1 (glioma, adherent, top dose 0.25 µM) | 0.823 | 224

Cell Line | AUC | IC50 [nM]
CCF-STTG1 (glioma, adherent, top dose 0.25 µM) | 0.814 | 138
CCK-81 (large intestine, adherent, top dose 0.25 µM) | 0.933 | > 250
CCRF-CEM (lymphoblastic leukaemia, suspension, top dose 0.25 µM) | 0.448 | 11.5
CESS (acute myeloid leukaemia, suspension, top dose 0.25 µM) | 0.891 | 218
CFPAC-1 (pancreas, adherent, top dose 0.25 µM) | 0.816 | 165
CGTH-W-1 (thyroid, adherent, top dose 0.25 µM) | 0.508 | 16.4
CHL-1 (melanoma, adherent, top dose 0.25 µM) | 0.507 | 16.3
CHP-126 (neuroblastoma, suspension, top dose 0.25 µM) | 0.685 | 52.2
CHP-134 (neuroblastoma, suspension, top dose 0.25 µM) | 0.796 | 155
CHP-212 (neuroblastoma, adherent, top dose 0.25 µM) | 0.658 | 41.4
CHSA0011 (chondrosarcoma, adherent, top dose 0.25 µM) | 0.854 | > 250
CHSA0108 (chondrosarcoma, adherent, top dose 0.25 µM) | 0.618 | 34.9
CHSA8926 (chondrosarcoma, adherent, top dose 0.25 µM) | 0.797 | 179
CL-11 (large intestine, adherent, top dose 0.25 µM) | 0.838 | 201
CL-34 (large intestine, adherent, top dose 0.25 µM) | 0.936 | > 250
CL-40 (large intestine, adherent, top dose 0.25 µM) | 0.865 | > 250
CMK (acute myeloid leukaemia, suspension, top dose 0.25 µM) | 0.864 | 166
CML-T1 (chronic myeloid leukaemia, suspension, top dose 0.25 µM) | 0.611 | 29.8
COLO-205 (large intestine, suspension, top dose 0.25 µM) | 0.71 | 60.7
COLO-320-HSR (large intestine, suspension, top dose 0.25 µM) | 0.793 | 97.9
COLO-668 (small cell lung carcinoma, adherent, top dose 0.25 µM) | 0.925 | > 250
COLO-678 (large intestine, semi-adherent, top dose 0.25 µM) | 0.956 | > 250
COLO-679 (melanoma, adherent, top dose 0.25 µM) | 0.802 | 141
COLO-680N (oesophagus, adherent, top dose 0.25 µM) | 0.904 | > 250
COLO-684 (endometrium, suspension, top dose 0.25 µM) | 0.625 | 36.1
COLO-783 (melanoma, adherent, top dose 0.25 µM) | 0.934 | > 250
